Measurements from a collection of fitness landscapes (doi:10.1126/science.1257360).
This is one part of the list.

B1: PhoQ; a variant is named by its letters at X, in order, P23837 (parent)
chain: MKKLLRLFFPLSLRVRFLLATAAVVLVLSLAYGMVALIGYSVSFDKTTFRLLRGESNLFYTLAKWENNKLHVELPENIDKQSPTMTLIYDENGQLLWAQRDVPWLMKMIQPDWLKSNGFHEIEADVNDTSLLLSGDHSIQQQLQEVREDDDDAEMTHSVAVNVYPATSRMPKLTIVVVDTIPVELKSSYMVWSWFIYVLSANLLLVIPLLWVAAWWSLRPIEALAKEVRELEEHNRELLNPATTRELTSLVRNLNRLLKSERERYDKYRTTLTDLTHSLKTPLXXLQXXLRSLRSEKMSVSDAEPVMLEQISRISQQIGYYLHRASMRGGTLLSRELHPVAPLLDNLTSALNKVYQRKGVNISLDISPEISFVGEQNDFVEVMGNVLDNACKYCLEFVEISARQTDEHLYIVVEDDGPGIPLSKREVIFDRGQRVDTLRPGQGVGLAVAREITEQYEGKIVAGESMLGGARMEVIFGRQHSAPKDE

Variants of: B1
Test: enrichment ratio after two sorts for PhoP signalling (ratio (wild type AVST 3.29)); higher = more functional
Conditions: with PhoP (E. coli)

Variant | enrichment ratio
TFVG | ≤ 0.25
SIDD | ≤ 0.25
RLWF | ≤ 0.25
WKAA | ≤ 0.25
MPSV | ≤ 0.25
QDTS | ≤ 0.25
PGMM | ≤ 0.25
QVIL | ≤ 0.25
VGPH | ≤ 0.25
RAKY | ≤ 0.25
NRDI | ≤ 0.25
MNMI | 4
DKDD | ≤ 0.25
VNTM | 3.43
AKIS | 2.92
EEVC | ≤ 0.25
MAQW | ≤ 0.25
RVKK | ≤ 0.25
GFFC | ≤ 0.25
QQRA | ≤ 0.25
SKVS | 5.06
SPGA | ≤ 0.25
CNLF | ≤ 0.25
EFVA | ≤ 0.25
RPDP | ≤ 0.25

Variant | enrichment ratio
HEKY | ≤ 0.25
FPRD | ≤ 0.25
SQIK | ≤ 0.25
KAWI | ≤ 0.25
MNSM | 9.22
KGKF | ≤ 0.25
MDQA | ≤ 0.25
SLKK | ≤ 0.25
HMLY | ≤ 0.25
STDK | ≤ 0.25
VLSM | 0.436
GHHA | ≤ 0.25
NTVM | ≤ 0.25
PGGN | ≤ 0.25
KAPA | ≤ 0.25
QTPH | ≤ 0.25
SQGM | 11.1
GICH | 5.94
MLDG | ≤ 0.25
LETV | ≤ 0.25
GQWP | ≤ 0.25
WYHF | ≤ 0.25
ERRG | ≤ 0.25
HNTQ | ≤ 0.25
PVYK | ≤ 0.25

Variant | enrichment ratio
IEPA | ≤ 0.25
DIKT | ≤ 0.25
NMPQ | ≤ 0.25
WTRM | ≤ 0.25
IFIP | ≤ 0.25
PKKN | ≤ 0.25
EHCV | ≤ 0.25
WKGK | ≤ 0.25
WHRV | ≤ 0.25
FCRM | ≤ 0.25
QIYM | ≤ 0.25
RVLW | ≤ 0.25
LAGW | ≤ 0.25
LDFK | 0.45
LEWK | ≤ 0.25
RHYM | ≤ 0.25
VWHD | ≤ 0.25
QFHK | ≤ 0.25
RILD | ≤ 0.25
QYQG | 3.68
VWWD | ≤ 0.25
GQQY | ≤ 0.25
WMLK | ≤ 0.25
RWAQ | ≤ 0.25
INMP | ≤ 0.25

Variant | enrichment ratio
VNCR | ≤ 0.25
RNMS | ≤ 0.25
NQQK | ≤ 0.25
LQMI | ≤ 0.25
NDGN | ≤ 0.25
FAYS | ≤ 0.25
LVGS | ≤ 0.25
DNCC | ≤ 0.25
NICW | ≤ 0.25
LGQN | ≤ 0.25
WLSG | ≤ 0.25
IWFI | ≤ 0.25
KKFY | ≤ 0.25
FEGP | ≤ 0.25
SWMS | ≤ 0.25
IKGA | ≤ 0.25
YIQI | 0.444
FAKM | ≤ 0.25
AHHM | ≤ 0.25
IEPK | ≤ 0.25
FMKW | ≤ 0.25
KQAF | ≤ 0.25
GTVD | ≤ 0.25
PWLW | ≤ 0.25
KTRA | ≤ 0.25

Variant | enrichment ratio
IEPR | ≤ 0.25
LAHM | 2.91
PAVN | ≤ 0.25
KEVM | ≤ 0.25
NWSL | ≤ 0.25
PSYR | ≤ 0.25
MWPI | ≤ 0.25
RKSR | ≤ 0.25
DYVA | ≤ 0.25
GWIK | ≤ 0.25
FQHE | ≤ 0.25
YSCW | ≤ 0.25
ITLK | ≤ 0.25
LQHC | ≤ 0.25
MSYI | 12.1
VVVV | ≤ 0.25
AKYE | ≤ 0.25
KYAY | ≤ 0.25
QKCR | ≤ 0.25
WPAI | ≤ 0.25
HISH | ≤ 0.25
WFYN | ≤ 0.25
AAMN | ≤ 0.25
KVYQ | ≤ 0.25
PCEK | ≤ 0.25

Variant | enrichment ratio
KPGY | ≤ 0.25
WHWS | ≤ 0.25
HFNM | ≤ 0.25
SDSH | ≤ 0.25
KSIN | ≤ 0.25
KELV | ≤ 0.25
NRWL | ≤ 0.25
YLIW | ≤ 0.25
YPRD | ≤ 0.25
LNYA | ≤ 0.25
PRPT | ≤ 0.25
KMDK | ≤ 0.25
NNFE | ≤ 0.25
MVDR | ≤ 0.25
PPTQ | ≤ 0.25
GFNW | ≤ 0.25
DELG | ≤ 0.25
FRLL | ≤ 0.25
IFTF | ≤ 0.25
ACCK | 12.8
DDIR | ≤ 0.25
QYVL | ≤ 0.25
LLRQ | ≤ 0.25
TNMQ | 11.1
RKVW | ≤ 0.25

Variant | enrichment ratio
DWYG | ≤ 0.25
ARFN | ≤ 0.25
HYTG | ≤ 0.25
TPTM | ≤ 0.25
QPHY | ≤ 0.25
HAEW | ≤ 0.25
TTMF | 20.9
MNNT | ≤ 0.25
LLCW | ≤ 0.25
MFQL | ≤ 0.25
ILHK | ≤ 0.25
RIPS | ≤ 0.25
YQRD | ≤ 0.25
VETN | ≤ 0.25
KNCC | ≤ 0.25
VHAH | ≤ 0.25
FITK | ≤ 0.25
DREI | ≤ 0.25
EPHK | ≤ 0.25
NLLY | ≤ 0.25
FYNK | ≤ 0.25
KKNQ | ≤ 0.25
DPCI | ≤ 0.25
YYGY | ≤ 0.25
HELC | ≤ 0.25

Variant | enrichment ratio
TMPM | ≤ 0.25
IHKG | ≤ 0.25
YMYY | ≤ 0.25
NGCG | ≤ 0.25
FRSL | ≤ 0.25
DLEN | ≤ 0.25
TQCP | ≤ 0.25
LELF | ≤ 0.25
MYNQ | ≤ 0.25
GTPD | ≤ 0.25
IPKK | ≤ 0.25
LFYF | ≤ 0.25
DGDV | ≤ 0.25
IMLQ | ≤ 0.25
QSDG | 11.8
LRYK | ≤ 0.25
TCFV | ≤ 0.25
MCDR | ≤ 0.25
RMLH | ≤ 0.25
WAMY | ≤ 0.25
